# Measured values from the supplement of paper PMC8728848.
# The list shows a part of the results.
# Legend:
# Experiment in all cases: glycan array binding signal (z-score within array); higher = stronger binding
# Settings in all cases: glycan notation: IUPAC condensed, linker removed
# [1] = target: Neu5Ac(a2-3)Gal6S(b1-4)[Fuc(a1-3)]GlcNAc
# How it was run: (§1)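 Columns mapping to the same glycan were averaged after glycan names were converted to IUPAC-condensed notation. The data come from 3228 arrays in the Consortium for Functional Glycomics database, limited to those with an available protein sequence. Binding is reported as a within-array Z-score averaged across arrays of one protein sequence and across linkers.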
# Neu5Ac(a2-3)GalNAc = target: Neu5Ac(a2-3)GalNAc
# How it was run: as §1
# [2] = target: Neu5Ac(a2-3)GalNAc(b1-4)GlcNAc
# How it was run: as §1
# [3] = target: Neu5Ac(a2-3)[GalNAc(b1-4)]Gal(b1-4)Glc
# How it was run: as §1
# [4] = target: Neu5Ac(a2-3)[GalNAc(b1-4)]Gal(b1-4)GlcNAc
# How it was run: as §1
# [5] = target: Neu5Ac(a2-3)[Neu5Ac(a2-6)]GalNAc
# How it was run: as §1
# Neu5Ac(a2-6)Gal = target: Neu5Ac(a2-6)Gal
# How it was run: as §1
# Neu5Ac(a2-6)Gal(b1-4)Glc = target: Neu5Ac(a2-6)Gal(b1-4)Glc
# How it was run: as §1
# [6] = target: Neu5Ac(a2-6)Gal(b1-4)GlcNAc
# How it was run: as §1
# [7] = target: Neu5Ac(a2-6)Gal(b1-4)GlcNAc(b1-2)Man(a1-3)[Gal(b1-4)GlcNAc(b1-2)Man(a1-6)]Man(b1-4)GlcNAc(b1-4)GlcNAc
# How it was run: as §1
# [8] = target: Neu5Ac(a2-6)Gal(b1-4)GlcNAc(b1-2)Man(a1-3)[GlcNAc(b1-2)Man(a1-6)]Man(b1-4)GlcNAc(b1-4)GlcNAc
# How it was run: as §1
# [9] = target: Neu5Ac(a2-6)Gal(b1-4)GlcNAc(b1-2)Man(a1-3)[GlcNAc(b1-2)Man(b1-4)GlcNAc(b1-2)Man(a1-6)]Man(b1-4)GlcNAc(b1-4)GlcNAc
# How it was run: as §1
# [10] = target: Neu5Ac(a2-6)Gal(b1-4)GlcNAc(b1-2)Man(a1-3)[Neu5Ac(a2-6)Gal(b1-4)GlcNAc(b1-2)Man(a1-6)]Man(b1-4)GlcNAc(b1-4)GlcNAc
# How it was run: as §1
# [11] = target: Neu5Ac(a2-6)Gal(b1-4)GlcNAc(b1-2)Man(a1-6)[Gal(b1-4)GlcNAc(b1-2)Man(a1-3)]Man(b1-4)GlcNAc(b1-4)GlcNAc
# How it was run: as §1
# [12] = target: Neu5Ac(a2-6)Gal(b1-4)GlcNAc(b1-2)Man(a1-6)[GlcNAc(b1-2)Man(a1-3)]Man(b1-4)GlcNAc(b1-4)GlcNAc
# How it was run: as §1
# [13] = target: Neu5Ac(a2-6)Gal(b1-4)GlcNAc(b1-3)Gal(b1-4)GlcNAc
# How it was run: as §1
# [14] = target: Neu5Ac(a2-6)Gal(b1-4)GlcNAc(b1-3)Gal(b1-4)[Fuc(a1-3)]GlcNAc(b1-3)Gal(b1-4)[Fuc(a1-3)]GlcNAc
# How it was run: as §1
# [15] = target: Neu5Ac(a2-6)Gal(b1-4)GlcNAc6S
# How it was run: as §1
# Neu5Ac(a2-6)GalNAc = target: Neu5Ac(a2-6)GalNAc
# How it was run: as §1
# [16] = target: Neu5Ac(a2-6)GalNAc(b1-4)GlcNAc
# How it was run: as §1
# Neu5Ac(a2-8)Neu5Ac = target: Neu5Ac(a2-8)Neu5Ac
# How it was run: as §1
# [17] = target: Neu5Ac(a2-8)Neu5Ac(a2-3)Gal(b1-4)Glc
# How it was run: as §1
# [18] = target: Neu5Ac(a2-8)Neu5Ac(a2-3)[GalNAc(b1-4)]Gal(b1-4)Glc
# How it was run: as §1
# [19] = target: Neu5Ac(a2-8)Neu5Ac(a2-8)Neu5Ac
# How it was run: as §1
# [20] = target: Neu5Ac(a2-8)Neu5Ac(a2-8)Neu5Ac(a2-3)Gal(b1-4)Glc
# How it was run: as §1
# [21] = target: Neu5Ac(a2-8)Neu5Ac(a2-8)Neu5Ac(a2-3)[GalNAc(b1-4)]Gal(b1-4)Glc
# How it was run: as §1
# [22] = target: Neu5Ac(a2-8)Neu5Ac(a2-8)Neu5Ac(a2-8)Neu5Ac(a2-3)[GalNAc(b1-4)]Gal(b1-4)Glc
# How it was run: as §1
# [23] = target: Neu5Ac(b2-6)Gal(b1-4)GlcNAc
# How it was run: as §1
# Neu5Ac(b2-6)GalNAc = target: Neu5Ac(b2-6)GalNAc
# How it was run: as §1
# [24] = target: Neu5Ac9Ac(a2-6)Gal(b1-4)GlcNAc
# How it was run: as §1
# [25] = target: Neu5Gc(a2-3)Gal(b1-3)GlcNAc
# How it was run: as §1
# [26] = target: Neu5Gc(a2-3)Gal(b1-3)[Fuc(a1-4)]GlcNAc
# How it was run: as §1
# Neu5Gc(a2-3)Gal(b1-4)Glc = target: Neu5Gc(a2-3)Gal(b1-4)Glc
# How it was run: as §1
# [27] = target: Neu5Gc(a2-3)Gal(b1-4)GlcNAc
# How it was run: as §1
# [28] = target: Neu5Gc(a2-3)Gal(b1-4)[Fuc(a1-3)]GlcNAc
# How it was run: as §1
# [29] = target: Neu5Gc(a2-6)Gal(b1-4)GlcNAc
# How it was run: as §1
# Neu5Gc(a2-6)GalNAc = target: Neu5Gc(a2-6)GalNAc
# How it was run: as §1
# [30] = target: Neu5Gc(b2-6)Gal(b1-4)GlcNAc
# How it was run: as §1
binder,measurement,setting,value
"MIC1 (Toxoplasma gondii), O00834 (protein) MGQALFLTVLLPVLFGVGPEAYGEASHSHSPASGRYIQQMLDQRCQEIAAELCQSGLRKMCVPSSRIVARNAVGITHQNTLQWRCFDTASLLESNQENNGVNCVDDCGHTIPCPGGVHRQNSNHATRHEILSKLVEEGVQRFCSPYQASANKYCNDKFPGTIARRSKGFGNNVEVAWRCYEKASLLYSVYAECASNCGTTWYCPGGRRGTSTELDKRHYTEEEGIRQAIGSVDSPCSEVEVCLPKDENPPLCLDESGQISRTGGGPPSQPPEMQQPADRSDERGGGKEQSPGGEAQPDHPTKGGNIDLPEKSTSPEKTPKTEIHGDSTKATLEEGQQLTLTFISTKLDVAVGSCHSLVANFLDGFLKFQTGSNSAFDVVEVEEPAGPAVLTIGLGHKGRLAVVLDYTRLNAALGSAAYVVEDSGCSSSEEVSFQGVGSGATLVVTTLGESPTAVSA",glycan array binding signal (z-score),[1],-0.178
same,glycan array binding signal (z-score),Neu5Ac(a2-3)GalNAc,-0.035
same,glycan array binding signal (z-score),[2],-0.232
same,glycan array binding signal (z-score),[3],2.82
same,glycan array binding signal (z-score),[4],5.43
same,glycan array binding signal (z-score),[5],-0.313
same,glycan array binding signal (z-score),Neu5Ac(a2-6)Gal,-0.007
same,glycan array binding signal (z-score),Neu5Ac(a2-6)Gal(b1-4)Glc,-0.281
same,glycan array binding signal (z-score),[6],-0.072
same,glycan array binding signal (z-score),[7],-0.368
same,glycan array binding signal (z-score),[8],-0.196
same,glycan array binding signal (z-score),[9],0.367
same,glycan array binding signal (z-score),[10],-0.189
same,glycan array binding signal (z-score),[11],0.312
same,glycan array binding signal (z-score),[12],0.082
same,glycan array binding signal (z-score),[13],-0.201
same,glycan array binding signal (z-score),[14],-0.268
same,glycan array binding signal (z-score),[15],-0.128
same,glycan array binding signal (z-score),Neu5Ac(a2-6)GalNAc,-0.123
same,glycan array binding signal (z-score),[16],-0.152
same,glycan array binding signal (z-score),Neu5Ac(a2-8)Neu5Ac,-0.258
same,glycan array binding signal (z-score),[17],-0.311
same,glycan array binding signal (z-score),[18],-0.142
same,glycan array binding signal (z-score),[19],-0.176
same,glycan array binding signal (z-score),[20],-0.192
same,glycan array binding signal (z-score),[21],-0.255
same,glycan array binding signal (z-score),[22],-0.193
same,glycan array binding signal (z-score),[23],-0.064
same,glycan array binding signal (z-score),Neu5Ac(b2-6)GalNAc,-0.201
same,glycan array binding signal (z-score),[24],-0.294
same,glycan array binding signal (z-score),[25],-0.261
same,glycan array binding signal (z-score),[26],-0.289
same,glycan array binding signal (z-score),Neu5Gc(a2-3)Gal(b1-4)Glc,-0.259
same,glycan array binding signal (z-score),[27],9.71
same,glycan array binding signal (z-score),[28],-0.21
same,glycan array binding signal (z-score),[29],-0.218
same,glycan array binding signal (z-score),Neu5Gc(a2-6)GalNAc,-0.313
same,glycan array binding signal (z-score),[30],-0.333
